Reference: the RNAGym collection of RNA variant scans (doi:10.7554/elife.90254)
Read counts are not given, so values of variants with three or more changes are uncertain.

B1: LINE1-full (parent)
chain: UACGUAGGUGGUUUUCCCCUGAUAGUGCUAAGGGGGCCUGGAAGUUUGGACUGGGCAGAGCUCAACACAGCGUGGCAAAGUGGCUGUGGCUAGACUGCCUCUCUGGAUUCCUCGUCACUCAGCAGGGCAUCUCUGAGAGAAAUGCC

Variants of: B1
Assay: self-cleavage, relative activity (ratio to wild type); higher = more cleavage; in vitro, sequencing; the parent is a self-cleaving ribozyme

| Variant | self-cleavage |
| --- | --- |
| U12C A50G G72A | 1.25 |
| U39C U47C U102A | 1.2 |
| U39A A65G A107U U115C | 0.31 |
| C17U U39C A42U U132C | 0.48 |
| A31U C66U A78G | 0.06 |
| A43G U45G A64G G88A A117G | 0 |
| G33U U73A A92G | 0.13 |
| U13A A50U A64G U100C U134G | 0.17 |
| U39C U47C A57G C99U | 0.46 |
| U13C U62C U73C G86A | 0 |
| U29A A77G U85A | 0.35 |
| U46C U52A A78G U100C A121G | 2.04 |
| U52C A59G C113U | 0.09 |
| U13A A43G C110U A124U | 1.24 |
| A6G U81A A129G | 1.45 |
| A2G U23C U47A | 1.49 |
| U46C A78G A79C C95U A140U | 1.42 |
| G75A U85C A121G U130A A138G | 0.53 |
| C17A U23C U87C A142G | 0.82 |
| C56G A78G U112A | 0.04 |
| A30G A94U U115C | 0.6 |
| A22G U85A A124G A140G | 0.08 |
| U39C C63U C103A | 0.3 |
| U13C U73A U85C | 0.21 |

| Variant | self-cleavage |
| --- | --- |
| A42G U115C A140G | 2.04 |
| U14C A78G C95A | 0.12 |
| A69U U119C A140G | 0.11 |
| A22U A24U A57U | 0.13 |
| U39C U73C C101U C128U A138G | 1.95 |
| A30G G48U A129C A140G A142G | 1.21 |
| U20C C38U U143C | 1.34 |
| G7A C68A U104A | 0.05 |
| U12C U13C A42G U73A A79U | 2.56 |
| G35A U73A U100C | 2.28 |
| A57U A64U G70A U96C U112C | 0 |
| U9C U13C A92U U115C A138G | 1.97 |
| U26G A69G G83C | 0.25 |
| U14C U39C U45C | 1.63 |
| A6G A129G U143C | 1.21 |
| C113U C116A G127C A142G | 1.13 |
| A50U A79G A121C A142G | 1.38 |
| U26C C61A G74A | 0.03 |
| A42G U47A U134C | 2.28 |
| U14A A24G G106A G125U | 1.37 |
| C123U U132C A142C | 1.26 |
| U26C A43U C56U | 0.12 |
| U26C A42G U52C A142G | 2.63 |
| A31U A57U A107U | 0.23 |

| Variant | self-cleavage |
| --- | --- |
| U15C U45C U87C | 0.27 |
| U62A A67G U115A | 0.21 |
| U46A U96A G122A A141G | 0.05 |
| A31C A42G A136G | 0.72 |
| A117G A124G A136G | 2.53 |
| G34A G40U U73A U115A A121G | 1.32 |
| A65U U130A C131A | 0.24 |
| A22G U23C U102A C118U | 1.02 |
| U5A G93U U132C A136G A138G | 0.05 |
| U9C G10A A94G U104C | 0.54 |
| U46C A67G A69C U132C | 0 |
| A6C U130C A136G | 0.96 |
| U13C U14A G80A A121U A141G | 1.67 |
| U14C A69G U134C U143C | 0.46 |
| U13C U14C U45A | 1.1 |
| C18A U73A U143A | 0.66 |
| U5C U52C G82A | 1.21 |
| U73C G88A U112C | 0.09 |
| G54A U85A G125A A129G | 0.05 |
| U5C U96A U109C | 0 |
| U9A G32A A65G A77G | 0.08 |
| U12C U52A A59G A92G | 0 |
| U9A G10U A59G A79U | 0.08 |
| A6G A43U U81A G114A A136G | 1.86 |

| Variant | self-cleavage |
| --- | --- |
| G54A U62C A69G A107G | 0.05 |
| A2U A30U A43G | 1.9 |
| U13C A140U A142G | 1.87 |
| A24U A64G C71U U108A | 0.15 |
| A57U G97A A124U A136U | 0.04 |
| U29C A64G G80A A94U | 0.18 |
| G41A U85C U102A A142G | 0.19 |
| C19U A65G A138G | 0.09 |
| U109C U115A A138U | 1.44 |
| G10U U26C A31U | 0.84 |
| A30G A42G A50G | 0 |
| U12C U29C U45C | 2.56 |
| A57U A129G A141G | 0 |
| U12G A59G A141G | 0.13 |
| U15C U96G A121C A141U U143A | 0 |
| C37U U39C A43G | 0.83 |
| U39C A43G U100C U119C A138G | 1.53 |
| U15C G40U A43G U62C A117G | 0 |
| A43G U47A A136G A140G | 0 |
| U15C G21U A79G U134C | 1.51 |
| U1C A30G A64G A94G | 0 |
| U47A A69U U73A C84U A94G U134C | 0.05 |
| A57U A65U G82A | 0.04 |
| A42U U47A A65G C116U | 0.02 |

| Variant | self-cleavage |
| --- | --- |
| G44A U45C A136G | 0.88 |
| U9C U96C U102C | 0.79 |
| A24U U108C C113U A124U U134A | 1.78 |
| U52C U87A A136G | 0.07 |
| U45C G54A U62C G93U A121G | 0.02 |
| A6G U45A U62A | 0.12 |
| G32C U87C C99U U134C | 0.26 |
| C99U U115C U119A | 0.96 |
| U1A U46C A136U | 0.86 |
| U12C U13A A65G U143C | 0.31 |
| A2U G4A U39C | 0.59 |
| U12C U73C U130C | 0.98 |
| A65G A77G U132C A138G | 0 |
| A22G U112C A142G | 1.89 |
| U45C U87C C145U | 0.27 |
| U12A G34A G125A A142G | 0.65 |
| A59G G126A A141G | 0.05 |
| U20C U26A A31G U102C A129G U134A | 0 |
| U5A G25A U39A | 1.04 |
| A94G U119A U130C | 0 |
| U29A A65G U87A C103U U104A | 0.05 |
| A42G A43G A67U A117G | 0 |
| U12C U52A G55U | 0.6 |
| G40A U47C U91C U115A | 0.61 |

| Variant | self-cleavage |
| --- | --- |
| A57G U134C A138U | 0.41 |
| A92G U119A A129G | 0 |
| A30G A59G U115A A129C | 0.46 |
| U5A A24G U39A A65G G122U | 0.32 |
| G32U G105A U119C U132C | 1.47 |
| U12C A42U U96G A129U A142G | 0 |
| G33A A78G U85C A136U A140U | 0.12 |
| U14C U45C G114A | 1.07 |
| A94G C131U A140G | 0.22 |
| U62C C63U A64U U132A | 0.01 |
| G7C U12G A22G U73C | 0.48 |
| G82A A94G U102C | 0.19 |
| U81C U104C A140G | 0.5 |
| A6G U20C A22U U132C A141U | 0.72 |
| U15C U62C A94G U132A A140G | 0.44 |
| U13C A43G U112C C120A G139A | 0.82 |
| U5C A79G A92U | 0.91 |
| U15C U104C A138U | 1.4 |
| U52G C84G A107U U115C U130C | 0.61 |
| A2U G53C U62C G70C | 0.06 |
| U9C U85A U100C | 0 |
| U47C A59G A141G | 0.29 |
| U47C A77G U130A | 1.84 |
| G82U A92G C120U A136G | 0.04 |

| Variant | self-cleavage |
| --- | --- |
| A42G A77C U96A | 0.11 |
| U39C A57U A69G A107U | 0 |
| U39C A43G U112C | 1.64 |
| A30G U46A U130C | 1.05 |
| U12G A77U U134C | 1.24 |
| U26C A69U A129U U130C | 0.22 |
| U14C U20C A67G | 0.21 |
| U14A A79G U102C A142G | 0.39 |
| C28U A57G A59G U62G U119C A142G | 0 |
| A30G A59C U96C | 0 |
| G32U A117U A142C | 1.36 |
| U1C G4A U5G A92U U108C | 0.63 |
| A31U A78G U115C | 2.3 |
| U1C U87C A142G | 0.48 |
| G32A U87C A92G G137U | 0.27 |
| A65G A77G A136U | 0 |
| U9C U85C U134C | 0.44 |
| G35A U47C G48A U108C C133A | 0.98 |
| A31G A57U U112C U119C | 0 |
| G48A A69G U91C | 0.15 |
| U5C U12G U62A A142G | 0.12 |
| C28G A78U G125U | 0.88 |
| A78G U96C A142G | 0.31 |
